Data published in PMC6570896.
These are yes or no findings as the source states them, for the method shown. Binding seen in cells or lysates may run through a third protein. Some binding calls cover weakened binding; strength is not graded here.

Chains of the proteins cited; added tags and fusions are not shown.
UniProt P17070: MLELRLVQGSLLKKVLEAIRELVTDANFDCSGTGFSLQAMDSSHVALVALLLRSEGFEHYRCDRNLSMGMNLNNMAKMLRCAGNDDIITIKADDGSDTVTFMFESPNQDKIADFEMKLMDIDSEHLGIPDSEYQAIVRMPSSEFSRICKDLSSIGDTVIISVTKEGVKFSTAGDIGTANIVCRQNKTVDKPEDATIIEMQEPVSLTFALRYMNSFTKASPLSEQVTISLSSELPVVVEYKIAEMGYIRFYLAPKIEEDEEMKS

What was measured:
Test in all cases: split reporter; BiFC: fusions to YFP^N (1-155 aa) and YFP^C (156-239 aa) co-expressed transiently in Nicotiana benthamiana leaf epidermal cells; YFP seen by confocal microscopy
[1] = target: T1, OsRFC4 Δ36–335 (rice (Oryza sativa)) (UniProt Q7XRX1)
T1 sequence: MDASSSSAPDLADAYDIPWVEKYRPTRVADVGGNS

[2] = target: T2, OsRFC3 Δ62–361 (rice (Oryza sativa)) (UniProt Q6YZ54)
T2 sequence: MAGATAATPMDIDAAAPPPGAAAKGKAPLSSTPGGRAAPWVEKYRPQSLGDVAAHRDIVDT

[3] = target: T3, OsRFC3 Δ37–361 (rice (Oryza sativa)) (UniProt Q6YZ54)
T3 sequence: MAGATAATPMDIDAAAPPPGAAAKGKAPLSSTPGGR

[4] = target: T4, OsRFC1 Δ1–642 (rice (Oryza sativa)) (UniProt Q2R2B4)
T4 sequence: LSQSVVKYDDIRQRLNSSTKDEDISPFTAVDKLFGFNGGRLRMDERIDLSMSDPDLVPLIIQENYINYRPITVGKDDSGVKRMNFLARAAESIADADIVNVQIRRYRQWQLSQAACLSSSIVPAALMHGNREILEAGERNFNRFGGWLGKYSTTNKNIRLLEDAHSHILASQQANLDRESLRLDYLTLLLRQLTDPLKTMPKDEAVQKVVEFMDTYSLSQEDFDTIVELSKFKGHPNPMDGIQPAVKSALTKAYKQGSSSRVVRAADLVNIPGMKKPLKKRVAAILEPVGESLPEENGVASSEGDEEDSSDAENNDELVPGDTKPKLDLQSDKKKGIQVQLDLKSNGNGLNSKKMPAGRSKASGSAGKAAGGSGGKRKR

[5] = target: T5, OsRFC2 Δ1–221 (rice (Oryza sativa)) (UniProt Q9FXM3)
T5 sequence: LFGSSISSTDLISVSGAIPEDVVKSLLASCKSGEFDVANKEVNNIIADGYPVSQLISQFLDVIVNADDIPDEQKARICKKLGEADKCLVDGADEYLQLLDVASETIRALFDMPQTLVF

[6] = target: T6, OsRFC1 with 300 aa deleted in its C-terminal (rice (Oryza sativa)) (UniProt Q2R2B4)
T6 sequence: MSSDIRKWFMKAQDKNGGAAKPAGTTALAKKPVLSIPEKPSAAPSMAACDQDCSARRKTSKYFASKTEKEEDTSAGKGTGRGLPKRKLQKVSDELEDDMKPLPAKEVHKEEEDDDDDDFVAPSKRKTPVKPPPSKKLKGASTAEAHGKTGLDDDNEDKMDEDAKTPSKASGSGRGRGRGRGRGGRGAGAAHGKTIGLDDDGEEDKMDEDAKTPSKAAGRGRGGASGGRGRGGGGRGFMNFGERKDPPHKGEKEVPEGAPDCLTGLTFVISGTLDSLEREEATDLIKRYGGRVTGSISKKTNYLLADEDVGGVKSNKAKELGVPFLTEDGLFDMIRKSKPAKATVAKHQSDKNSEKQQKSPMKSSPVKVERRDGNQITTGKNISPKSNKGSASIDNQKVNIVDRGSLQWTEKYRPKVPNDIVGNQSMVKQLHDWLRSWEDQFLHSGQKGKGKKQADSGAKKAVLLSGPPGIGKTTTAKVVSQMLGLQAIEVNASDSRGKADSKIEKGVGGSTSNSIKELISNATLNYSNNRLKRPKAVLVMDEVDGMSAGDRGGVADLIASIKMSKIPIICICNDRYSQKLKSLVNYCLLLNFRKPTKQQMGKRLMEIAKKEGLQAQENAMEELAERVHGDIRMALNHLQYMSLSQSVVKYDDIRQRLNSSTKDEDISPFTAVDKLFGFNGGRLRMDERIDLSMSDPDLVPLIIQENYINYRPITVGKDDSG

- binding [1]: binds
- binding [2]: binds
- binding [3]: no binding
- binding [4]: binds
- binding [5]: binds
- binding [6]: binds
Substance: OsPCNA-YFP^C (from UniProt P17070 1-263)
